# From PubChem BioAssay (Tox21)
# Values joined by “and” are separate entries in the source; they are usually repeats but may differ in a detail not shown here. Equal entries are not always repeated. This list was built around the results that the source calls inconclusive (neither active nor inactive); the mix of calls is not that of the screen. For some of these results: Potencies of inconclusive entries are doubtful fits and often do not repeat. More than one record can exist for a structure, and the calls need not agree. Active and inactive are the calls of the source. Unless noted, calls follow the shape of the full dose curve.
# Assays:
# [1] = molecular target: Estrogen receptor beta (Homo sapiens) (UniProt Q92731); experiment: qHTS assay to identify small molecule agonists of the estrogen receptor beta (ER-beta) signaling pathway (AID 1259377; active = well fitted activation curve with a large enough effect in the signal ratio in the repeat runs, not every such curve was filed as active; inconclusive = weak or mixed curves, or effect the other way; the % refers to the signal ratio; also: potency is read from the fitted curve at half-maximal effect; as to activation: % is scaled to controls: 0 for no effect and ±100 for the full control effect); conditions: ER-beta-UAS-bla HEK293T, beta-lactamase FRET ratio, 16 h; activation: at 92.4 µM (top of the series) unless noted
# Sequence of UniProt Q92731 (Q92731 whole entry, looked up): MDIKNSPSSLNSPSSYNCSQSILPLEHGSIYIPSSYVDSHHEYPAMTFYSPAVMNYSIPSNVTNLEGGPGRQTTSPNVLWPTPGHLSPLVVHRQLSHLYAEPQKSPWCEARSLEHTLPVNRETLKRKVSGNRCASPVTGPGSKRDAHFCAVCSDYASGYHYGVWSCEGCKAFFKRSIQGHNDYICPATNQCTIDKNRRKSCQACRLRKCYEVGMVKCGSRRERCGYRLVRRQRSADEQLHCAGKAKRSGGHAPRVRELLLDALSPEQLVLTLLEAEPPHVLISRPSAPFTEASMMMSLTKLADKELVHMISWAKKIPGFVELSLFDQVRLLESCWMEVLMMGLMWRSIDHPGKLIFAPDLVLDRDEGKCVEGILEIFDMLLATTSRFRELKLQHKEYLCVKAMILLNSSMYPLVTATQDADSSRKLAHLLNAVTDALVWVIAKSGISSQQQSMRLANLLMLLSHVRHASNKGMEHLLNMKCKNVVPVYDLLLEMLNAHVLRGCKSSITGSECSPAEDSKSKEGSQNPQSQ
# How it was run: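 Beta-lactamase reporter readout: fluorescence of LiveBLAzer B/G FRET substrate after 2 h at room temperature, following 16 h compound treatment of ER-beta-UAS-bla HEK293T cells at 37C in 2% charcoal-stripped FBS medium.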
# [2] = molecular target: Progesterone receptor (Homo sapiens) (UniProt P06401); experiment: qHTS assay to identify small molecule antagonists of the progesterone receptor (PR) signaling pathway (AID 1346795; active = well fitted inhibition curve with a large enough effect in the signal ratio in the repeat runs, not every such curve was filed as active; inconclusive = weak or mixed curves; the % refers to the signal ratio; also: potency is read from the fitted curve at half-maximal effect; as to activity change, negative = inhibition: % is scaled to controls: 0 for no effect and ±100 for the full control effect); conditions: PR-UAS-bla HEK293T, beta-lactamase FRET ratio, 16 h; activity change, negative = inhibition: at 92.4 µM (top of the series) unless noted
# Sequence of UniProt P06401 (P06401 whole entry, looked up): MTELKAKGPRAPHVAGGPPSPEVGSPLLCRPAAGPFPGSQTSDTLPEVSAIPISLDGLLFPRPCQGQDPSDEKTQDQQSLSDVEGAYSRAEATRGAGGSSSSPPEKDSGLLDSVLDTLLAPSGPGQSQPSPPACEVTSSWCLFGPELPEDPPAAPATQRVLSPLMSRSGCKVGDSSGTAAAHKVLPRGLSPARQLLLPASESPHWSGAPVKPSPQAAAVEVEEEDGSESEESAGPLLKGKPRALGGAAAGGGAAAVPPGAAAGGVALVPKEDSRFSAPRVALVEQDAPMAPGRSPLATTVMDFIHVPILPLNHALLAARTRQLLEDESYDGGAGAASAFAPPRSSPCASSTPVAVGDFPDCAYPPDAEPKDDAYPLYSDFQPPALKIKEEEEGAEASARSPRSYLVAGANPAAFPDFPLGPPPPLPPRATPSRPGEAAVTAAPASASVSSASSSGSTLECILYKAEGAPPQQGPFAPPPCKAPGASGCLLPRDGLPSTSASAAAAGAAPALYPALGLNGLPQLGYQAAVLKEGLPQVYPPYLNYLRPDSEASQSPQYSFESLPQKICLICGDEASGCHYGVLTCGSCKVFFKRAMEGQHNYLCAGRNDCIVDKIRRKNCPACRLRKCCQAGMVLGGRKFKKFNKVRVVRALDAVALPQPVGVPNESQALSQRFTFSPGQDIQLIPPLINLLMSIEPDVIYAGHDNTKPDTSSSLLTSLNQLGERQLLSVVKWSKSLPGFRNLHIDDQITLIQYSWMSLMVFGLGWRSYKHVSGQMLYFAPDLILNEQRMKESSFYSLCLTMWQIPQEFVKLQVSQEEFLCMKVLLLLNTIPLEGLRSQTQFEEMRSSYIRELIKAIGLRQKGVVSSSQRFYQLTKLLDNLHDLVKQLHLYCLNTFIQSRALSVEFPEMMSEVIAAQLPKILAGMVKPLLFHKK
# How it was run: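 Beta-lactamase reporter, HEK293T PR-UAS-bla line; 2% charcoal-stripped FBS; 6 hr pre-incubation, 37C/5% CO2. Compound + R5020 1 nM final, 16 hr. LiveBLAzer B/G FRET substrate, 2 hr RT; fluorescence intensity read.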
# [3] = molecular target: Estrogen receptor beta (Homo sapiens) (UniProt Q92731); experiment: qHTS assay to identify small molecule antagonists of the estrogen receptor beta (ER-beta) signaling pathway (AID 1259378; active = well fitted inhibition curve with a large enough effect in the signal ratio in the repeat runs, not every such curve was filed as active; inconclusive = weak or mixed curves, or effect the other way; inactive = no such curve, though single readings can be large or run the other way; the % refers to the signal ratio; also: potency is read from the fitted curve at half-maximal effect; as to activity, negative = inhibition: % is scaled to controls: 0 for no effect and ±100 for the full control effect); conditions: ER-beta-UAS-bla HEK293T, beta-lactamase FRET ratio, 16 h; activity, negative = inhibition: at 92.4 µM (top of the series) unless noted
# How it was run: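 ER-beta-UAS-bla HEK293T cells in 2% charcoal-stripped FBS medium treated with compound plus 1nM final 17-beta-estradiol for 16 hr at 37C. Beta-lactamase reporter read by FRET substrate fluorescence after 2 hours at room temperature.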
# [4] = qHTS assay to identify small molecule agonists of the progesterone receptor (PR) signaling pathway - cell viability counter screen (AID 1346799); also: nearly all actives have a fitted effect of over 45% in size; also: potency is read from the fitted curve at half-maximal effect
# How it was run: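 HEK293T PR-UAS-bla, 3,000 cells/well, 2% charcoal-stripped FBS; 6 h settle, compound 16 h at 37C/5% CO2; LiveBLAzer 2 h RT, then CellTiter-Glo 30 min RT, luminescence read.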
# [5] = qHTS assay to identify small molecule antagonists of the TGF-beta/Smad signaling pathway - cell viability counter screen (AID 1346824; active = well fitted curve in the direction sought with a large enough effect in the repeat runs; inconclusive = weak or mixed curves; inactive = no such curve, though single readings can be large; an effect the other way counts as inactive or inconclusive; also: potency is read from the fitted curve at half-maximal effect; nearly all actives have a fitted effect of over 50% in size)
# How it was run: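 SBE-bla HEK 293T cells, incubated overnight, then compound plus 0.25 ng/mL TGF-beta1 (stock added) for 5 hr at 37 C. Viability was read in the same wells by CellTiter-Glo luminescence after 30 min at room temperature.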
# [6] = qHTS assay to identify small molecule agonists of the estrogen receptor alpha (ER-alpha) signaling pathway in the presence of an antagonist - cell viability counter screen (AID 1259386; active = well fitted curve in the direction sought with a large enough effect in the repeat runs; inconclusive = weak or mixed curves; inactive = no such curve, though single readings can be large; an effect the other way counts as inactive or inconclusive;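 also: cells exposed to compounds for 22 h at 37 °C before the viability read; % is scaled to controls: 0 for no effect and ±100 for the full control effect; nearly all actives have a fitted effect of over 30% in size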)
# How it was run: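 Cells are starved of estrogens for 5 days in charcoal-stripped serum, seeded for 24hr and co-treated with ICI-182,780 (10.0nM final) and test compounds. After 22hr at 37C, viability is read as CellTiter-Fluor fluorescence.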
# [7] = qHTS assay to identify small molecule antagonists of the progesterone receptor (PR) signaling pathway - cell viability counter screen (AID 1346798; active = well fitted curve in the direction sought with a large enough effect in the repeat runs; inconclusive = weak or mixed curves; inactive = no such curve, though single readings can be large; an effect the other way counts as inactive or inconclusive; also: potency is read from the fitted curve at half-maximal effect; nearly all actives have a fitted effect of over 50% in size)
# How it was run: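 Luminescence readout (CellTiter-Glo, 30 min, RT) of viability in PR-UAS-bla HEK293T cells exposed to compound and R5020 agonist for 16 hr at 37C, 5% CO2; run in the same wells as the beta-lactamase reporter read.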
# [8] = qHTS assay to identify small molecule agonists of the androgen receptor (AR) signaling pathway in the presence of an antagonist - cell viability counter screen (AID 1259379; active = well fitted curve in the direction sought with a large enough effect in the repeat runs; inconclusive = weak or mixed curves; inactive = no such curve, though single readings can be large; an effect the other way counts as inactive or inconclusive; also: potency is read from the fitted curve at half-maximal effect; nearly all actives have a fitted effect of over 25% in size)
# How it was run: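 Fluorescence from CellTiter-Fluor, added after 15 hr and read 1 hr later, gave cell viability. Cells were MDA-kb2 exposed to compounds (15 concentrations) in the presence of 3.0uM nilutamide at 37C, 0% CO2.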
# [9] = molecular target: Progesterone receptor (Homo sapiens) (UniProt P06401); experiment: qHTS assay to identify small molecule agonists of the progesterone receptor (PR) signaling pathway (AID 1346784); conditions: PR-UAS-bla HEK293T, beta-lactamase FRET ratio, 16 h; activation: at 92.4 µM (top of the series) unless noted; also: nearly all actives have a fitted effect of over 30% in size; also: potency is read from the fitted curve at half-maximal effect; as to activation: % is scaled to controls: 0 for no effect and ±100 for the full control effect
# How it was run: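 HEK 293T PR-UAS-bla reporter cells, 2% charcoal-stripped FBS; 6 hr settle at 37C/5% CO2, compound (DMSO) 16 hr, LiveBLAzer B/G FRET substrate 2 hr RT, fluorescence intensity read.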
# Tags tell the direction and shape of the fitted curve or compound fluorescence and quenching.
compound,measurement,setting,value
COc1nc(C)nc(NC(=O)NS(=O)(=O)c2ccccc2Cl)n1,activation,[1],inconclusive: 14.7%
same,Potency,[2],"inconclusive: 26.9 µM [falling, single point]"
N#CN,Potency,[1],inactive
same,Potency,[3],inactive
same,Potency,[4],inactive
same,Potency,[5],"inconclusive: 181 µM [cytotoxic, partial curve, poor fit]"
CCCCOC(=O)COC(=O)c1ccccc1C(=O)OCCCC,activation,[1],inconclusive: 4.73%
same,Potency,[2],inactive
CN,activation,[1],inconclusive: 12.9%
same,Potency,[6],inactive
same,"activity change, negative = inhibition",[2],inconclusive: 4.8%
ClCCCCCCCl,Potency,[1],inactive
same,Potency,[7],"inconclusive: 0.864 µM [cytotoxic, partial curve, poor fit]"
Clc1ccc(Cl)c(Cl)c1,Potency,[1],active: 59.5 µM
same,Potency,[6],inactive
same,Potency,[2],inactive
N#CC(Br)Br,activation,[1],inconclusive: 9.04%
same,Potency,[8],"inconclusive: 43 µM [cytotoxic, partial curve]"
same,Potency,[2],"inconclusive: 68.2 µM [rising, partial curve, poor fit]"
O=Cc1ccc(Cl)cc1Cl,Potency,[1],"inconclusive: 48.9 µM [activator, partial curve, poor fit]"
same,Potency,[2],"inconclusive: 0.0174 µM [rising, full curve, poor fit]"
same,Potency,[4],inactive
CN(C)C(=O)C(c1ccccc1)c1ccccc1,Potency,[1],inactive
same,Potency,[3],inactive
same,Potency,[9],"inactive and inconclusive: 43.2 µM [activator, partial curve]"
same,Potency,[4],"inconclusive: 1.07 µM [cytotoxic, full curve, poor fit]"
CC[C@H]1C[C@H]2[C@@H]3CCC4=CC(=O)CC[C@@H]4[C@H]3CC[C@]2(C)[C@H]1O,Potency,[1],inactive
same,Potency,[3],"inconclusive: 33.5 µM [inhibitor, single point]"
same,Potency,[9],"inconclusive: 0.298 µM [activator, full curve]"
same,"activity change, negative = inhibition",[2],inconclusive: -54.2% [at 42.5 µM]
same,Potency,[4],"inconclusive: 0.668 µM [rising, full curve]"
